Measurements: PMC7819943, “Rice protein-binding microarrays: a tool to detect cis-acting elements near promoter regions in rice”
The list shows a part of the results.

What follows are sequences tested against T1, OsWOX13 (Oryza sativa, UniProt Q5QMM3 1-267) (assay: protein-binding microarray (RPBM); PBS, 2% BSA, 51.3 ng/ul salmon testes DNA, 50 uM zinc acetate, 200 nM TF, 25 C, 1 h; high values mean tight binding). Conditions: protein: recombinant; tags: N-terminal polyhistidine and DsRed monomer fusion (pET32a); label: CyDye5-dUTP incorporated in the synthesized complementary strand; 3' TTTTT single-stranded linker to array surface; dsDNA, one strand shown.
T1 sequence: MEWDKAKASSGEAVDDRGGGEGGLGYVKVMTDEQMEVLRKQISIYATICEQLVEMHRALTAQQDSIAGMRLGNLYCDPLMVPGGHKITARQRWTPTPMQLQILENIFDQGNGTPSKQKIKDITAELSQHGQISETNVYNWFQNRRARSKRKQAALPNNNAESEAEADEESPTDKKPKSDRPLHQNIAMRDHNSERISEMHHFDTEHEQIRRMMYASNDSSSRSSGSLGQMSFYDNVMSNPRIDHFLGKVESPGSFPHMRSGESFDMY
Method in brief: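 Polyhistidine-tagged DsRed fusions of transcription factors, joined at the N-terminus, were expressed in E. coli BL21-CodonPlus and isolated on Ni–NTA. They were incubated at 200 nM for 1 h at 25 °C on a custom Agilent array, double-stranded and BSA-blocked, in PBS with 2% BSA, salmon testes DNA and 50 µM zinc acetate. The binding signal is per-feature fluorescence intensity (arbitrary units) read on an Axon 4000B scanner after washing.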

Row | Sequence | binding signal
1 | GTCCTACATATGCTAAATTGGCAATATGTAAAGATTTACTCGGAGTCACCTAGTGCAG | 4980 fluorescence intensity (a.u.)
2 | AAAGAAAATGATTGGACATTTTCTTTCACGTGTATGCTTACGGAGTCACCTAGTGCAG | 47500 fluorescence intensity (a.u.)
3 | TGCAAACTGGAGGCCAAATTTACTACAAAACTACGTATTTCGGAGTCACCTAGTGCAG | 3890 fluorescence intensity (a.u.)
4 | TAATAATTAGTATAATGAAAATAAATAAATTACCGGGAGTCGGAGTCACCTAGTGCAG | 49300 fluorescence intensity (a.u.)
5 | AGAAATTAATTTCTCTCGGTATTTTCTTCTTTCTTCTCTCCGGAGTCACCTAGTGCAG | 34300 fluorescence intensity (a.u.)
6 | ACGTGTGATTAATTGAGTTTTAATTATTACAAACTTAAAACGGAGTCACCTAGTGCAG | 40900 fluorescence intensity (a.u.)
7 | TGTTGTGATATATTGAAAGACAATTATAAATCTAAATGTGCGGAGTCACCTAGTGCAG | 5410 fluorescence intensity (a.u.)
8 | TCATGCAATGATCGGAAAATTAATTGTCAATCCTAAGGCGCGGAGTCACCTAGTGCAG | 10700 fluorescence intensity (a.u.)
9 | CTGGCCATTCAATCTCGAGTCAATGAAGTTAGTGATCCATCGGAGTCACCTAGTGCAG | 5330 fluorescence intensity (a.u.)
10 | TTCATCAAACAGATTGCCAGCGATAGAACACATGAAGGGACGGAGTCACCTAGTGCAG | 5230 fluorescence intensity (a.u.)
11 | ATAATAATTGGCTGTAACTCTGATGAGCAAAGGCTGAGATCGGAGTCACCTAGTGCAG | 35200 fluorescence intensity (a.u.)
12 | ACAATGTGATTTGCTGCATCTTCTTACATCTGTTAATATTCGGAGTCACCTAGTGCAG | 15200 fluorescence intensity (a.u.)
13 | ATTAAATAAGCTGTCATTTAGAATGAAAGATGATGTGGCACGGAGTCACCTAGTGCAG | 4190 fluorescence intensity (a.u.)
14 | CCCCAACTGCACAATGATTGGTGCCCCTCCCGCCGCGCTCCGGAGTCACCTAGTGCAG | 40100 fluorescence intensity (a.u.)
15 | TTGGCAGATTGACAAGGGACCAGCCATGCCATTGCTCTGACGGAGTCACCTAGTGCAG | 34600 fluorescence intensity (a.u.)
16 | TTAATTTATACCAGCTTAATTGCCGATCGAATTCACCACCCGGAGTCACCTAGTGCAG | 33200 fluorescence intensity (a.u.)
17 | AGCTTCAATTTATCTATAGGCAATTTAATAGCTCATTAATCGGAGTCACCTAGTGCAG | 5740 fluorescence intensity (a.u.)
18 | ATGTTCCTATCAGTTGCTAATTATTAGTGTGACATCAATCCGGAGTCACCTAGTGCAG | 16300 fluorescence intensity (a.u.)
19 | CCTAAATTACCCTTTAAAGATTAACTGTGGATAACAATTCCGGAGTCACCTAGTGCAG | 16600 fluorescence intensity (a.u.)
20 | AGATCCAATTAGCTTGTTTTGTGTATGGGTATTGATTTGTCGGAGTCACCTAGTGCAG | 5270 fluorescence intensity (a.u.)
21 | AAAGTCATTGGCATATAATTAATTTAGTTTTAATTGTTTTCGGAGTCACCTAGTGCAG | 7660 fluorescence intensity (a.u.)

Row | Sequence | binding signal
22 | AACAATAAATTTATATTATAGTTTTACGATACTTAGTTTTCGGAGTCACCTAGTGCAG | 13300 fluorescence intensity (a.u.)
23 | ACAAGAGAAATTGAAACCCCTGATTTCAAGTTTCAACCGGCGGAGTCACCTAGTGCAG | 5000 fluorescence intensity (a.u.)
24 | TCCTGAATTAATGGGTAGCTGTAATAGTTGGAAGCCAACGCGGAGTCACCTAGTGCAG | 4440 fluorescence intensity (a.u.)
25 | TCCAATGATTAATGATTAATCATTAATGGTTTCAGTACGTCGGAGTCACCTAGTGCAG | 40000 fluorescence intensity (a.u.)
26 | GCGCCATGATTTAACGATGTGATGCTACAGTAAACATTTGCGGAGTCACCTAGTGCAG | 6330 fluorescence intensity (a.u.)
27 | GTTTCATTAAATATGATAATGATAATGTGTCTATTTTGTACGGAGTCACCTAGTGCAG | 6030 fluorescence intensity (a.u.)
28 | CCTAAGTTATTGGGTTGATTAGCAAGGGAGGAGGTTGATGCGGAGTCACCTAGTGCAG | 25600 fluorescence intensity (a.u.)
29 | CTCCAAATTAAATACAGTTAAATAAATTTTACTGTTAAGCCGGAGTCACCTAGTGCAG | 19300 fluorescence intensity (a.u.)
30 | ACGTAATTTGGGACCACATGTGGGTGAAATCCCGTCTCGGCGGAGTCACCTAGTGCAG | 8640 fluorescence intensity (a.u.)
31 | GTGACTGAATTTTAGTACTAGTAGATGAATGGAGTACGTCCGGAGTCACCTAGTGCAG | 6120 fluorescence intensity (a.u.)
32 | TTTAAATTTGAACTTGAATTACAACGAGGGGATGGAGGGACGGAGTCACCTAGTGCAG | 6280 fluorescence intensity (a.u.)
33 | AATTTCAATTAAACTTGATTGATGACCTATTTTGTTCGAACGGAGTCACCTAGTGCAG | 35200 fluorescence intensity (a.u.)
34 | TATATAATTACTACTAGTCGCCTCCGAAAGCTACCTCTGCCGGAGTCACCTAGTGCAG | 11500 fluorescence intensity (a.u.)
35 | ATGATTTGACAATATGGTGCTATAGTAAACATTTGGTAATCGGAGTCACCTAGTGCAG | 41400 fluorescence intensity (a.u.)
36 | GGAATCTCCAATTAGTACACCGCCCCTGATCCCCTCTATGCGGAGTCACCTAGTGCAG | 4000 fluorescence intensity (a.u.)
37 | TCGTTAGTGGTTACGACTGATTGAGATGTGTGCTCAGACACGGAGTCACCTAGTGCAG | 8580 fluorescence intensity (a.u.)
38 | CTATGACTTAATTGATGCAAGAACTGAAAATACAGTTAGACGGAGTCACCTAGTGCAG | 11300 fluorescence intensity (a.u.)
39 | AATTTACACTTAATTTGCTATTTGCTATACATGTTTTCTACGGAGTCACCTAGTGCAG | 10800 fluorescence intensity (a.u.)
40 | GTTAGTAATGTTGATTAGTGCATGGCTTATTTGGTTGCACCGGAGTCACCTAGTGCAG | 15600 fluorescence intensity (a.u.)
41 | CCCAGAAACTTAATTTCCCCACTCTAGTTCTACTCAACATCGGAGTCACCTAGTGCAG | 3680 fluorescence intensity (a.u.)
42 | ATAACTGATAGGAAGACAAAACAGTCCAATTTCTAAAACTCGGAGTCACCTAGTGCAG | 15600 fluorescence intensity (a.u.)
